# The whole screen tested about 310,000 compounds, of which about 2,200 (0.71%) showed an effect of 50% or more. Effects have a minus sign here. This is one part of the list.
# Target: human ether-à-go-go-related gene (hERG) potassium channel (human, UniProt Q12809)
# Assay: primary screen, population patch clamp on CHO cells stably expressing hERG
# human ether-à-go-go-related gene (hERG) potassium channel, sequence (Q12809 whole entry, looked up): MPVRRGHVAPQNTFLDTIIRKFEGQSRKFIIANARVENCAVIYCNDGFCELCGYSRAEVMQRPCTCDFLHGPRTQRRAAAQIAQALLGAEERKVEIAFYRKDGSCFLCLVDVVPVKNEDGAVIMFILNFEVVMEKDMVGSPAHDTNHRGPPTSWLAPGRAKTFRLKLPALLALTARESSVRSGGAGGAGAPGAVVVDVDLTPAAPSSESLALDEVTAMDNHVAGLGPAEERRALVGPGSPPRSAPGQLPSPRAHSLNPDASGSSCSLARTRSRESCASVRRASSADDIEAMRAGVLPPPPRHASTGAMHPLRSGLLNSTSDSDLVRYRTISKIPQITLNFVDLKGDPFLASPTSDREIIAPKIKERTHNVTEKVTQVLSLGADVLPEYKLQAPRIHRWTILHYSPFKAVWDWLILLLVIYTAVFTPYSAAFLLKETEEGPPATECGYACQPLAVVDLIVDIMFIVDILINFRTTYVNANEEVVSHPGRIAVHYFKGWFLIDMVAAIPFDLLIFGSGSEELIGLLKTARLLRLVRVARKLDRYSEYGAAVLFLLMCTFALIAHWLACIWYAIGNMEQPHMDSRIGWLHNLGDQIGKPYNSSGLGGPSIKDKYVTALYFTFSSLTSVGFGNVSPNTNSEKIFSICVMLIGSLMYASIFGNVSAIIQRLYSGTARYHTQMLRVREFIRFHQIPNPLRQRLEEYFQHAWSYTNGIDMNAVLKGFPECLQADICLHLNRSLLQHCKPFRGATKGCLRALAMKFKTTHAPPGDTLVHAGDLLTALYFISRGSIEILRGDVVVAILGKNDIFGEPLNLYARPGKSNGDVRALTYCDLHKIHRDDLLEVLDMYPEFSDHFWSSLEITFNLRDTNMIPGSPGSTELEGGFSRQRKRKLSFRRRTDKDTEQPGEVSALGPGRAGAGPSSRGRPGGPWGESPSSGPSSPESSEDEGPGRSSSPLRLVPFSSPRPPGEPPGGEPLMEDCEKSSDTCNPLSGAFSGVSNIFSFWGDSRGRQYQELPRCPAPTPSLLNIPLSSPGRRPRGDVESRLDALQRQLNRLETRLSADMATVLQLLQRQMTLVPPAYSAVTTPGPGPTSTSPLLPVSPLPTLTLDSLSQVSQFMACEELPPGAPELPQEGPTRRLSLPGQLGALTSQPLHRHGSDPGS
row,SMILES,"hERG current change (%, negative = inhibition) at 1uM [%]"
1,CCOc1ccc(C(=O)NC(=S)NCc2cccnc2)cc1[N+](=O)[O-],10
2,COc1cc(NC(N)=S)c(OC)cc1Cl,11.9
3,CCOc1ccc(-c2nc(-c3ccccc3C)no2)cc1,10.9
4,CCCCC(=O)Nc1nnc(CCc2ccccc2)s1,5.45
5,CCCCCCOc1ccc(NC(=O)CC2C(=O)N(CC)C(=S)N2Cc2ccco2)cc1 (centres unmarked),14.2
6,Cc1cc(OC(C)C(=O)NCC(O)c2ccccc2)c2c3c(c(=O)oc2c1)CCC3 (centres unmarked),4.63
7,COc1cccc(/C=N/NC(=O)c2ccc(OCc3cccc(Br)c3)cc2)c1,6.59
8,O=C(Cc1ccccc1)Nc1nnc(-c2ccco2)s1,7.55
9,Cc1cc(C)c2c(N)c(C(=O)c3ccc(Cl)c(Cl)c3)sc2n1,12.8
10,CCOc1ccccc1-c1nc2c(s1)CCc1onc(-c3ccc(OC)cc3)c1-2,9.28
11,CC(C)(C)C(=O)[C@H]1[C@H](c2ccccc2)[C@@]2(N=C(c3ccccc3)OC2=O)C2c3ccccc3C=NN21 (some centres unmarked),16.8
12,CC(C)(C)C(=O)CSc1ncnc2sc3c(c12)CCC3,1.18
13,C#Cc1ccc(CN2CCN(CCCc3ccccc3)C(CCO)C2)cc1 (centres unmarked),-14.1
14,CC1CN(C(=O)C(C)N2C(=O)c3ccccc3C2=O)CC(C)O1 (centres unmarked),-2.66
15,COc1ccccc1OP(=O)(Nc1cccnc1)Oc1ccccc1OC,18
16,C=CCOc1ccc(/C(O)=C2\C(=O)C(=O)N(CCOC)C2c2cccnc2)cc1 (centres unmarked),8.47
17,Cc1ccc(N2C(N)=C(C#N)C(c3cc(CN4CCOCC4)cs3)C3=C2CC(C)(C)CC3=O)cc1 (centres unmarked),12
18,O=C(Oc1c(Br)cc(Br)c2cccnc12)N1CCCCC1,-6.26
19,CC1CCC(C(C)C)C(OC(=O)C[n+]2cc(-c3ccc(Cl)cc3)n3c2CCC3)C1.[Cl-] (centres unmarked),-25.6
20,CC(=O)c1c[nH]c(C(=O)NCc2ccccc2Cl)c1,15.6
21,CC1CCCCC1NC(=S)Nc1cccc(S(=O)(=O)N(C)C)c1 (centres unmarked),18.2
22,CN(C)S(=O)(=O)c1ccc(C(=O)NCCSc2ccccc2)cc1,-1.53

row,SMILES,"hERG current change (%, negative = inhibition) at 1uM [%]"
1,COc1ccc(/C=N/Nc2nnc(Cc3ccccc3)c(=O)[nH]2)cc1OC,-14.2
2,N#Cc1ccc(COC(=O)CSc2nnc(C3CCCCC3)n2N)cc1,-12.3
3,CCC1Sc2ccc(S(=O)(=O)Nc3ccc(OC)c(OC)c3)cc2NC1=O (centres unmarked),10.4
4,C=CCNc1nc(C(=O)OCC)nc2ccccc12,14.3
5,Cc1ccc(N(C(=O)c2csnn2)C(C(=O)NC2CCCCC2)c2cccnc2)c(C)c1 (centres unmarked),7.11
6,CC1CCCCC12NC(=O)N(CC(=O)NCc1ccc3c(c1)OCO3)C2=O (centres unmarked),16
7,CC1Cc2cc(S(=O)(=O)N3CCC(C(=O)N4CCCCC4)CC3)ccc2N1C(=O)C1CC1 (centres unmarked),-2.44
8,COc1cc(C(=O)Nc2ccc(N3CCCS3(=O)=O)cc2)c([N+](=O)[O-])cc1OC,4.34
9,O=C(NCCc1nc(-c2ccc(F)cc2)no1)c1ccc(F)cc1,1.12
10,O=[N+]([O-])c1cccc2ncccc12,11.6
11,C=CC(C)Sc1nc2c(c(=O)n(C)c(=O)n2C)n1Cc1ccccc1Cl (centres unmarked),6.25
12,COC(=O)CSc1nc2c(cnn2-c2ccc(F)cc2)c(=O)[nH]1,20.1
13,CC(C)(C)OC(=O)N[C@H](/C=C/c1ccccc1)C(=O)OC(C)(C)C,4.95
14,O=C(O)CSc1nc(-c2ccccc2)cc(=O)[nH]1,6.67
15,Cc1cc(=O)[nH]c(SCC(=O)N2c3ccccc3CC2C)n1 (centres unmarked),12.4
16,CCOC(=O)C1=C(COC(=O)CCc2ccc(CC)cc2)NC(=O)NC1C (centres unmarked),5.55
17,NC(=O)c1nn(-c2ccccc2)nc1NC(=O)CN1CCOCC1,1.71
18,Cc1cccc2c1cnn2C(=O)CCC(=O)NCC(C)c1ccccc1 (centres unmarked),13.5
19,CN(C)/C=C(/C(=O)c1ccc(Cl)cc1)S(=O)(=O)c1ccccc1,7.81
20,CC(=O)NC(Cc1cc(C)ccc1C)C(=O)N1CCN(C(=O)c2ccc(Br)cc2)CC1 (centres unmarked),-11
21,Cc1nn(-c2ccccc2)c2c1C(c1ccc(Cl)cc1)N(c1ccccc1)C(=O)N2 (centres unmarked),-8.45
22,CC1CN(C(=O)N[C@@H](Cc2ccccc2)C(=O)O)CC(C)O1 (some centres unmarked),6.78
